The results in this text go back to article PMC10668032.

The other results are listed elsewhere or left out. At the low end of the ranking the order means little.

The target in this assay is SIX1-Q177R homeodomain (UniProt Q15475). In words: universal protein binding microarray. To be noted: Universal all-10-mer PBM (8x60K, AMADID 030236), 300 nM GST-tagged protein, Alexa Fluor 488 anti-GST; buffer, salt, pH and temperature not stated; high values mean tight binding; most listed sequences are background and not binding sites; double strand, one strand shown.
For the sequence ATAACAAC, the binding signal was 0.00677 E-score. ATCGCCAG: the binding signal was -0.0992 E-score.

For the sequence CTACTGAG, the binding signal is -0.0489 E-score. As to TGCCATAA, the binding signal was -0.0217 E-score. With ACATTAAA, the binding signal was -0.129 E-score. For CTTCAGGC, the binding signal was 0.00547 E-score. As for ACCGGGCA, the binding signal worked out at 0.037 E-score. On to ACCGCTAG, for which the binding signal was 0.171 E-score. As to AAATGATT, the binding signal was -0.224 E-score. For the sequence CTCGATTA, the binding signal is 0.0237 E-score. With AATCGCGG the figure was -0.0765 E-score.

CCCGATCC: the binding signal is 0.239 E-score. For the sequence CCCCATAG, the binding signal is 0.209 E-score. AACAAATT: the binding signal is -0.174 E-score. For CACCGATA, the binding signal was found to be 0.313 E-score.

Turning to ACCGGCAA, the binding signal is -0.0503 E-score. ACGCGTCC: the binding signal worked out at 0.174 E-score.

As to CGAATAAC, the binding signal was 0.0493 E-score. ATATGATC: the binding signal came out at 0.0526 E-score.

TCCTAAAA: the binding signal was -0.0345 E-score. Take ACCATTCC: the binding signal is 0.0494 E-score.

Regarding GCATATGA, the binding signal was determined as 0.0212 E-score.

For GCTCGTGA, the binding signal was -0.103 E-score. In the case of ATCGCGGC, the binding signal was -0.137 E-score. In the case of AACGAAGT, the binding signal was -0.0611 E-score.

For the sequence AAGGATCC, the binding signal is 0.178 E-score. As to ATAGCTCA, the binding signal was -0.144 E-score. Then GGGGGAAA, with -0.141 E-score; and ACTATCCC, with 0.0126 E-score. Regarding GTTGCGCA, the binding signal was -0.122 E-score.

For AAGCGTGC, the binding signal was -0.00144 E-score. For the sequence GCCTGAGC, the binding signal was -0.139 E-score. Regarding CTTCGAAG, the binding signal is -0.0709 E-score. Take ACGAACAT: the binding signal is -0.118 E-score. With GGCCTACC, the binding signal is -0.0529 E-score. As to GTAGACCA, the binding signal is -0.141 E-score. With GTAAACAC, the binding signal worked out at 0.375 E-score. Consider ACCGATTA, for which the binding signal stood at 0.0958 E-score. Then AGGTATCA, with 0.324 E-score; and CCTCAACG, with -0.0648 E-score; and AGCAAAGA, with -0.142 E-score. Consider TAGCTGGA, for which the binding signal is -0.0783 E-score. Consider AAATGATA, for which the binding signal was found to be 0.0796 E-score. As to GTAGCCTA, the binding signal was -0.00659 E-score. Regarding GCCGGGAA, the binding signal is -0.248 E-score. For ATTCGTTG, the binding signal was -0.138 E-score. With AAACCGAA, the binding signal is 0.0031 E-score. For CCGGGGCC, the binding signal is -0.116 E-score. Turning to ATCATGCC, the binding signal was -0.131 E-score. As to AGAATGCT, the binding signal is -0.152 E-score.

As to TATCGACA, the binding signal came to 0.212 E-score. On to ACAAGCTG, for which the binding signal is -0.0734 E-score. As for CGCGCAAA, the binding signal came out at 0.0874 E-score.

Turning to ATTCACTA, the binding signal was -0.00613 E-score. In the case of CCGCTGGA, the binding signal is -0.1 E-score. On to AATCTCGA, for which the binding signal is -0.19 E-score.

As for GGCAGGCA, the binding signal is -0.224 E-score. Take GACCTCTC: the binding signal is -0.152 E-score. With ATTACGGC the figure was -0.169 E-score. Then ACTCGTTG, with -0.063 E-score; and TAGCCCCA, with 0.0826 E-score; and ATTCTTGC, with -0.129 E-score. With GCTGGTAC, the binding signal was -0.0799 E-score. Take AAAAACCG: the binding signal is -0.0883 E-score. Regarding AGAGAAAG, the binding signal is -0.15 E-score. ATACCTAA: the binding signal is 0.0493 E-score. For the sequence ACCCTAAT, the binding signal is 0.099 E-score. Take GTTCACAA: the binding signal is -0.00229 E-score.

Turning to CCGAGTGC, the binding signal was 0.14 E-score. Then GACGAAGA, with -0.236 E-score; and CCATGGCG, with 0.0146 E-score. In the case of GATAGTCC, the binding signal is 0.0164 E-score. Consider ATTTTAAC, for which the binding signal is -0.155 E-score.

Consider GGTCAAAC, for which the binding signal was -0.0349 E-score. Then ACTATTGA, with 0.0882 E-score; and CGAGTTGA, with -0.0495 E-score; and CTATTGTC, with -0.125 E-score.

With AGCGCTAC, the binding signal is -0.0635 E-score. With ACCGATCT, the binding signal is -0.0586 E-score.

ACCGATAG: the binding signal stood at 0.0859 E-score. As for GATATCCC, the binding signal was 0.193 E-score. On to AGCTCCGC, for which the binding signal was -0.0589 E-score.

AAACGTCT: the binding signal is -0.0938 E-score.

On to AAGGCTTC, for which the binding signal is -0.214 E-score.

In the case of GCGAGCAC, the binding signal amounted to 0.135 E-score. Consider ACAGCGGG, for which the binding signal is -0.154 E-score.

With GGTAACTA, the binding signal worked out at 0.112 E-score. With CAAGGATG, the binding signal is -0.162 E-score. Turning to CCGTACTC, the binding signal was determined as 0.126 E-score.

For CTTATCAA, the binding signal was -0.173 E-score. For ATTTCGAC, the binding signal was -0.0898 E-score.

Take ACTCTCAT: the binding signal is -0.0746 E-score. Turning to ATAACGAC, the binding signal was found to be 0.0874 E-score. Then CGTCCGTC, with -0.0952 E-score; and CTGAGGTA, with 0.185 E-score.

AAGAAGCC: the binding signal is -0.169 E-score. Then ATTTCTGG, with 0.00773 E-score.

For the sequence AGCCCTGG, the binding signal is -0.112 E-score. As to AATGCTAC, the binding signal is -0.0358 E-score. Take CTATGGGC: the binding signal is -0.171 E-score. Turning to ACCCAACC, the binding signal was 0.128 E-score.

For the sequence AGGATTTG, the binding signal is 0.0393 E-score. With CTTCCCGC the figure was -0.0561 E-score; with AACTGCAA, -0.0818 E-score.

As for CCAGCGTA, the binding signal was 0.0867 E-score. As for TCGCAGCA, the binding signal was -0.139 E-score. CAGCGGGC: the binding signal was -0.299 E-score.

Take CACGGCGA: the binding signal stood at 0.259 E-score. For the sequence ATAGAGGA, the binding signal was 0.149 E-score. For ATCTGCGA, the binding signal was determined as 0.0327 E-score. As for CCTTCCTA, the binding signal worked out at 0.0445 E-score. As to GTTACAAC, the binding signal is -0.0466 E-score.

For the sequence CAAGACTC, the binding signal was -0.0127 E-score.

Regarding AACGGCAG, the binding signal was -0.0456 E-score.

As for CTTACCAA, the binding signal is -0.0789 E-score. For the sequence ACCCGGAG, the binding signal stood at 0.298 E-score. With TCTAGACA the figure was 0.155 E-score; with CGAGGGGA, 0.121 E-score. On to CCCATGAG, for which the binding signal came out at 0.0726 E-score. AACTTTAA: the binding signal was -0.237 E-score. On to AGTAGTCA, for which the binding signal amounted to 0.13 E-score. Take AAAGGTCT: the binding signal was -0.228 E-score.

Regarding GCTGGCAC, the binding signal came out at 0.0975 E-score. In the case of CAGTCGGG, the binding signal turned out to be 0.196 E-score.

For AAGTTCAC, the binding signal is -0.158 E-score. Regarding ACGGCGAG, the binding signal is 0.058 E-score. Consider CACTGCAC, for which the binding signal was 0.223 E-score. With ACATAAAA the figure was -0.0789 E-score; with ACGAATCA, -0.0578 E-score. On to ATGCTGCA, for which the binding signal was 0.0502 E-score.

Regarding ACTCATGA, the binding signal is -0.102 E-score. As for CAAGGTAA, the binding signal was -0.0915 E-score. Take CTCTCCGA: the binding signal was -0.178 E-score. As for AGCCCGGC, the binding signal was -0.0685 E-score.

Consider GCGCTCCC, for which the binding signal is -0.175 E-score. With CTTCCGTC the figure was -0.157 E-score.

In the case of CCCAAATA, the binding signal was -0.0946 E-score. As to CACAGCTG, the binding signal was -0.075 E-score. With ACGGCTCT, the binding signal is -0.0868 E-score. Consider ATGGTCAA, for which the binding signal was -0.196 E-score. For GGCGTAGA, the binding signal was -0.0209 E-score. Then GGTGCGAA, with 0.131 E-score. Take ACGAGTTC: the binding signal is -0.0617 E-score. With GCGAAGAC, the binding signal came to 0.0267 E-score.

For the sequence CGTGGGGC, the binding signal worked out at 0.00507 E-score.

For the sequence CCGCGGAA, the binding signal is -0.0881 E-score. Consider GACCTATA, for which the binding signal was -0.0673 E-score.

For GCAAAGAC, the binding signal was -0.326 E-score. As to ATCAGCCG, the binding signal is -0.147 E-score. Take CATTGGCG: the binding signal amounted to 0.0382 E-score.

In the case of GTAAGTGA, the binding signal worked out at 0.011 E-score.

Turning to GTTCCCAA, the binding signal is -0.142 E-score. With GCTAGGCA the figure was -0.284 E-score.

For CAAGGGAA, the binding signal is -0.0453 E-score. Regarding GTTCTATA, the binding signal is -0.0522 E-score. In the case of AATACCGT, the binding signal was found to be 0.0468 E-score. With ACCCTCAC the figure was 0.127 E-score; with ACGGACTA, -0.108 E-score; with ACCTAAGT, -0.052 E-score.

On to CGCTTCGA, for which the binding signal was 0.00389 E-score. Consider CGTGCGGA, for which the binding signal was -0.0768 E-score. GCATGGAA: the binding signal was -0.128 E-score.

Regarding AGAAGCTC, the binding signal was -0.316 E-score.

With AAATACCC, the binding signal came to 0.0467 E-score. On to AATGTTTA, for which the binding signal was -0.231 E-score.

Consider GGCGCCAA, for which the binding signal was -0.169 E-score. On to ATGTCCTA, for which the binding signal was -0.00932 E-score. Then CCCAGCAA, with -0.0696 E-score; and AAGGGCAA, with -0.0942 E-score. As for AAAAGGGA, the binding signal is -0.0864 E-score.

Turning to GGTAGTAC, the binding signal came to 0.0786 E-score. Take CCGCTGTA: the binding signal is -0.0643 E-score.
